First the molecules themselves.
T1: UNK ZnF1-3 (human, UniProt Q9C0B0 31-174)
T1 sequence: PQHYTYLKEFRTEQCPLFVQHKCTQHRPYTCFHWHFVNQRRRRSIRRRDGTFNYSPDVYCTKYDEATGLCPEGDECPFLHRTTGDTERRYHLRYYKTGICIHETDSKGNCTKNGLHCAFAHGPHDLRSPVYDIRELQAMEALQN

B1: 136599505_136599625_684_CDS_ENSG00000029363_ENST00000527536|human|control|control (ssRNA)
RNA: GGGAGUUCUACAGUCCGACGAUCCCCUUCAGCUUUUUUGGUUUGUUUUUCCUGAGACCCUCGUCUUUUAGAAACAGGAGAUUUGCUAUAUGGGGAUGAAGAACGAGAAGAGGAUGAUCUUGGAGACCUAGAAGAUCUAUAUGACAACAGAGGAUUGAGCAUCA
B2: chr20:33128396:33128397:+_ENSG00000125971_ENST00000357156|hu_hu|FALSE|FALSE (ssRNA)
RNA: GGGAGUUCUACAGUCCGACGAUCGACACAGGGAGCCAAGAGAGUGGCUUAUUCGGUUGGAUUCUGAAUCACAAUCAGGAAAUAGUCUUUAUCUGGUGCAACCAUAAUUUCAUUUUUCUUGGAGCGAAUUCGAAGGAAGGUGAGCAACAGAGGAUUGAGCAUCA
B3: chr11:102258902:102258903:+_ENSMUSG00000006575_ENSMUST00000006750|mus_mus|motif|central (ssRNA)
RNA: GGGAGUUCUACAGUCCGACGAUCGAAAUUAACAAACUCCUCGGAAGAGUCAUCAAUGGGUUCUGCUGUGUACUUCUCGGGCAGGGUUUUCACAGAGAACCUGCACACGGUGAUCAGGUUCCUGCGCUCCACGAUCACGUUGCGCAACAGAGGAUUGAGCAUCA
B4: chr1:153198750:153198751:+_ENSMUSG00000023150_ENSMUST00000023918|perfect_dup|motif|central (ssRNA)
RNA: GGGAGUUCUACAGUCCGACGAUCUUCUGGAUUGAGAUCAUCCAACUUCACAUGAGAAACUCCAUGAGGGUCACUGUCACGGUUGAAGAUUUCAAAUAGAUAGGGGCUACAGCAAGCCAGGACUGCCCUGUGUGCUAGCAUCUCCAACAGAGGAUUGAGCAUCA
B5: chr18:38477064:38477065:+_ENSMUSG00000060450_ENSMUST00000072376|mus_mus|motif|central (ssRNA)
RNA: GGGAGUUCUACAGUCCGACGAUCGCUCUUCACAGGUUUAGAGAGCAUUCAUGAGGAAUACACUGGGCUUUUUCCGGCUCGGGUGAGGAAAUAAAGACACACACUGCUGGGAUCAACAUUAAAACUGUCCUUGCCCACAAGAGGCAACAGAGGAUUGAGCAUCA
B6: chr14:103969519:103969520:+_ENSG00000075413_ENST00000216288|hu_mus|motif|central (ssRNA)
RNA: GGGAGUUCUACAGUCCGACGAUCAUUACUGGGUUACAGCUUUAGCUCAUUGGCAAUUUUGGAAGCAAUAUUUUUGAAAGCGGUGGAUGUCCCUGAUAUCCGCUUAAACCGGACUCCAUUCAGAGACAGUCUUGGCAGCUUACACAACAGAGGAUUGAGCAUCA
B7: 19910841_19910961_2423_CDS_ENSMUSG00000027615_ENSMUST00000012580|mouse|control|control (ssRNA)
RNA: GGGAGUUCUACAGUCCGACGAUCCCUCUCAGAUAACCUCCAAACGUACUGAGAGAUGAGCUUGAAAAAGAGUUCCUCAAGUACCACAUUUGGGAGACAAGCUACGAGCUGAGCUUCCCAGAAGUCUAUCAAAAGCUGCGGAACCAACAGAGGAUUGAGCAUCA
B8: 88393090_88395398_2046_CDS_ENSMUSG00000005371_ENSMUST00000130379|mouse|control|control (ssRNA)
RNA: GGGAGUUCUACAGUCCGACGAUCUCAAAUAUUCUGUUUUUCCUUAAUACUGGAUGACUGUUAGUGCUGAUGAGGACACCUGCUUGAGCGUUCCUGAAAAUAUCAUUUUCUUCAAGGAGACCUCGACCCCCAUUAAAUAUACAGCAACAGAGGAUUGAGCAUCA
B9: chr1:213174215:213174216:-_ENSG00000174606_ENST00000366962|hu_mus|FALSE|FALSE (ssRNA)
RNA: GGGAGUUCUACAGUCCGACGAUCUGUUUUUUCUACUUUGGGAACCUGCUGUGCCUCAUAAACACAGUUCUGAGAGAUGCCUAGGUUUGGGGGCCAAAUUGGAAUAGAUAAAAUUCUUUGUCCCCGUGAAGACUGUUCCUGGCCCAACAGAGGAUUGAGCAUCA
B10: chr18:34792849:34792850:-_ENSMUSG00000024370_ENSMUST00000133181|mus_mus|FALSE|FALSE (ssRNA)
RNA: GGGAGUUCUACAGUCCGACGAUCGAUCUAUAGCACCUACUGCACAAGCUCAUUGUAGCAGACAUCAAGUGGCUCUGAAACCUAGAAAAACACAGUGAAUUCUUCAACCUUGUAGAUAAGGUUGAAAACCAAAUUGGAGACUUUCAACAGAGGAUUGAGCAUCA
B11: chr4:41496568:41496569:+_ENSG00000064042_ENST00000508501|hu_hu|FALSE|FALSE (ssRNA)
RNA: GGGAGUUCUACAGUCCGACGAUCUUUAACAAGUCCUGGCUUUAUAGCAUUCAGCAACUCGCAGAGGAGGAUUCCAUUUUCUAAACCUGUCCGAAAAUCUUUAUCACCAAAACUUCUGCCAGUUACUUGCUCAAUCCACUUCUGCAACAGAGGAUUGAGCAUCA
B12: chr8:23117756:23117757:+_ENSG00000147457_ENST00000313219|hu_hu|FALSE|FALSE (ssRNA)
RNA: GGGAGUUCUACAGUCCGACGAUCAGCUUCAAGUUCAGCAUCUGAGAUCCUAGGGUUAGGCACGCUGUUGGUAAAAUGCCUAUUGCGGGGGUUGUCAGGCAGAUCCAAAGGUUCUUUGGUGGUAUCCUGAAGGAGGAUGUCCAACAACAGAGGAUUGAGCAUCA
B13: chr4:148551591:148551592:-_ENSMUSG00000063077_ENSMUST00000060537|mus_hu|mus_mus_mus_hu_False|48_68 (ssRNA)
RNA: GGGAGUUCUACAGUCCGACGAUCACCUGACAAAAUUAAAUAUCCCUGUAAAUUAGACAAUAAGCAGCAGGUAACAAAGUCUUUGCUUUGAAAUAUGUGCCAGGAAAAGUCAUCUUGUUUUUAGAUCUCAAGAGACAGUUCACACAACAGAGGAUUGAGCAUCA
B14: chr4:101285476:101285477:+_ENSMUSG00000028528_ENSMUST00000094953|mus_mus|FALSE|FALSE (ssRNA)
RNA: GGGAGUUCUACAGUCCGACGAUCGAGUGGCUUGAAGUGAGGGCGGUAGGGCUUAUCUGCAAGUAGGUCGCACAUGUAGCCUAAGUACCUCCUGUGAGACGGAGACAGUCCAAUUCCUGGUCGCUUUGCGUAGAGUAAUCGAACCAACAGAGGAUUGAGCAUCA

14 molecules from article PMC12136788 can be followed below.

This is one part of the list.

In this experiment the target is T1, UNK ZnF1-3. The experiment is described as follows: nsRBNS (natural sequence RNA bind-n-seq); RBNS binding buffer (assumed for nsRBNS): 25 mM Tris pH 7.5, 150 mM KCl, 3 mM MgCl2, 0.01% Triton X-100, 500 ug/ml BSA, 20 U/ml SUPERase-In, 4 C; UNK is unkempt and MSI1 is Musashi-1; names of the RNAs are library labels; protein concentration not given here; high values mean tight binding.
B1: the binding signal was 1.68 enrichment R. In the case of B2, the binding signal was 1.73 enrichment R. As for B3, the binding signal came out at 0.627 enrichment R. B4 showed a binding signal of 1.74 enrichment R. Regarding B5, the binding signal was determined as 1.17 enrichment R. The value for B6 was 0.598 enrichment R. B7 had a binding signal of 1.1 enrichment R.

Take B8: the binding signal is 1.02 enrichment R. Next, B9: 0.849 enrichment R.

Take B10: the binding signal worked out at 1.58 enrichment R. The value for B11 was 1.02 enrichment R; that for B12 was 1.09 enrichment R; that for B13 was 1 enrichment R. Next, B14: 0.783 enrichment R.
